In publication PMC4336329 (PLoS ONE, 2015):
The campaign covered roughly 310,000 compounds. About 14,000 (4.5%) showed an effect of 50% or more. The effect is printed as a negative number. This is one part of the list.
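Also: peak tail current of the secondary pulse compared with the same well before compound.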

Each compound was assayed against human ether-à-go-go-related gene (hERG) potassium channel (human, UniProt Q12809) (assay: primary screen, population patch clamp on CHO cells stably expressing hERG).
Chain of human ether-à-go-go-related gene (hERG) potassium channel (Q12809 whole entry, looked up): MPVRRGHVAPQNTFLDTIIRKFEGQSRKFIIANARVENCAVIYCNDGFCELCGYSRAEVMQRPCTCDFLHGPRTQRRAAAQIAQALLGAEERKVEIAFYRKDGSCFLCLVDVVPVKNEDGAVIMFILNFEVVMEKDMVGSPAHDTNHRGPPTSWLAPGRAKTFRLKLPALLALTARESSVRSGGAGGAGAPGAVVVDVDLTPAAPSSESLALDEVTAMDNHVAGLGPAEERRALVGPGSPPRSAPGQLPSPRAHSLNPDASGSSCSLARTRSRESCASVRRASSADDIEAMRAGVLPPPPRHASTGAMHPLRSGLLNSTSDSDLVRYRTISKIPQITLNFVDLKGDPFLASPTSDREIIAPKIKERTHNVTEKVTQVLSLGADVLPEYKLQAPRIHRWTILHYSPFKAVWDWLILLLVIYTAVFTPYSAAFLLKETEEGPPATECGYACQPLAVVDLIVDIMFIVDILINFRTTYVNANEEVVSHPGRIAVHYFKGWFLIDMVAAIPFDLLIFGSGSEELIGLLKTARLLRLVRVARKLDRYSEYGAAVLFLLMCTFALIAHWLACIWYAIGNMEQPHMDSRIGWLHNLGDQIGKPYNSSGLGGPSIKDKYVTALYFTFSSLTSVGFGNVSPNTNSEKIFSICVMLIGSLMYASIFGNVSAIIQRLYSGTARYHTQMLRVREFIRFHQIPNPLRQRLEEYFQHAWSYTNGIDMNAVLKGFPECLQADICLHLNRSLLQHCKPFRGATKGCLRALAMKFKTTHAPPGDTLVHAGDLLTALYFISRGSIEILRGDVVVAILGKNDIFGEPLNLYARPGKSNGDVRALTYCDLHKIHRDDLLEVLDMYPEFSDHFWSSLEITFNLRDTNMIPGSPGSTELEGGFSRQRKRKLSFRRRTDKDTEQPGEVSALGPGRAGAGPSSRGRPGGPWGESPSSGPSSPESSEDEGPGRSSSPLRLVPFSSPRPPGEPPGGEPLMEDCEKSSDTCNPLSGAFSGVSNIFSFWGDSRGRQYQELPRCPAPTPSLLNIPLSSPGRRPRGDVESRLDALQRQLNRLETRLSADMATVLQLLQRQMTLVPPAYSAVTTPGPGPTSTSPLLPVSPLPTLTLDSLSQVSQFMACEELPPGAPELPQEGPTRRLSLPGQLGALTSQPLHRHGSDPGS
In the case of `CCC(=O)N1CCc2cc(S(=O)(=O)NCCN3CCCCC3CC)ccc21` (stereo not shown), the “hERG current change (%, negative = inhibition) at 10uM” value is reported as -17.5%. `COC(=O)C1C(=O)c2c(n[nH]c2C)CC1(C)C` (stereo not shown) was tested, and the “hERG current change (%, negative = inhibition) at 10uM” value was 33.5%. In the case of `CC1CC(C)(C)NC(=S)N1CCCC(=O)N1CCN(c2ccc(F)cc2)CC1` (stereo not shown), the “hERG current change (%, negative = inhibition) at 10uM” value is reported as -20.8%. `Cc1ccc(-c2nnc(CN3CCN(C)CC3)o2)cc1` was tested, and the “hERG current change (%, negative = inhibition) at 10uM” value was -3.18%. `CC(C)Cn1c(O)c2ccc(C(=O)N=NC(=O)c3cccnc3)cc2c1O` was tested, and the “hERG current change (%, negative = inhibition) at 10uM” value was 17%. `COCCN(C(=O)/C=C/c1cccc([N+](=O)[O-])c1)c1c(N)n(Cc2ccccc2)c(=O)[nH]c1=O` was tested, and the “hERG current change (%, negative = inhibition) at 10uM” value was -8.98%. `C/[N+]([O-])=C\c1coc2ccccc2c1=O` was tested, and the “hERG current change (%, negative = inhibition) at 10uM” value was -1.4%. With `Cl.OCCCNCc1ccc(-c2ccccc2)cc1` the “hERG current change (%, negative = inhibition) at 10uM” value was -2.16%. In the case of `O=C(Nc1cccc(S(=O)(=O)N2CCOCC2)c1)c1cnccn1`, the “hERG current change (%, negative = inhibition) at 10uM” value is reported as -13.7%. For `CCOc1ccc(CCNC(=O)C2=C(C)C(=O)OC23CCCCC3)cc1OCC`, the “hERG current change (%, negative = inhibition) at 10uM” value was 19.4%. `COc1cc2c(cc1OC)C(c1c(O)n(CCc3ccccc3)c(=S)[nH]c1=O)NCC2` (stereo not shown) was tested, and the “hERG current change (%, negative = inhibition) at 10uM” value was 18%. With `COc1ccc(OCC(O)Cn2c(N)nc3c2c(=O)[nH]c(=O)n3C)cc1` (stereo not shown) the “hERG current change (%, negative = inhibition) at 10uM” value was 6.58%. `O=C(COc1ccccc1)NCC(=O)N/N=C/c1cc(Br)ccc1OCc1ccccc1` was tested, and the “hERG current change (%, negative = inhibition) at 10uM” value was 14%. In the case of `COc1ccc(Br)cc1C(=O)Nc1ccc(N2CCCC2)cc1`, the “hERG current change (%, negative = inhibition) at 10uM” value is reported as 24.1%. In the case of `COCCC(=O)N1CCC(Oc2ccc(C(=O)N3CCCC(OC)C3)cc2)CC1` (stereo not shown), the “hERG current change (%, negative = inhibition) at 10uM” value is reported as 9.12%. In the case of `O=C1NC(=O)N(CCNc2ncc(C(F)(F)F)cc2Cl)C(=O)C1Cc1ccc(Cl)cc1` (stereo not shown), the “hERG current change (%, negative = inhibition) at 10uM” value is reported as 13.7%. In the case of `COc1ccc(NC(C)=O)cc1CNC(=O)COc1c(C)c(C)cc(C)c1C`, the “hERG current change (%, negative = inhibition) at 10uM” value is reported as 4.48%. For `CCN1CCN(C(=O)c2cc3cc4cc(OC)ccc4nc3s2)CC1`, the “hERG current change (%, negative = inhibition) at 10uM” value was -20.8%. In the case of `Cc1ccc(S(=O)(=O)N2CCC(C(=O)Nc3ccc(C(C)C)cc3)CC2)cc1`, the “hERG current change (%, negative = inhibition) at 10uM” value is reported as -11.5%. With `O=C(NCC(=O)N1CCN(c2ccccc2)CC1)c1cccs1` the “hERG current change (%, negative = inhibition) at 10uM” value was 3.44%. In the case of `O=C(O)C1C2CCC(O2)C1C(=O)Nc1cccc(Br)c1` (stereo not shown), the “hERG current change (%, negative = inhibition) at 10uM” value is reported as 24.4%. `COc1ccc(CN2CC(C(=O)NCc3ccc4c(c3)OCO4)CC2=O)cc1` (stereo not shown) was tested, and the “hERG current change (%, negative = inhibition) at 10uM” value was -44.8%. For `COc1ccc2nc3cc(Cl)ccc3c(Nc3cc(CN4CCCC4)c(O)c(CN4CCCC4)c3)c2n1.O=P(O)(O)O`, the “hERG current change (%, negative = inhibition) at 10uM” value was -48%. In the case of `CC1(C)C(=O)Nc2ccccc2N1C(=O)COC(=O)c1cc(S(=O)(=O)N2CCOCC2)ccc1F`, the “hERG current change (%, negative = inhibition) at 10uM” value is reported as 23.3%. In the case of `O=C(Nc1ccccc1)c1ccc(-c2ccc(F)cc2)s1`, the “hERG current change (%, negative = inhibition) at 10uM” value is reported as -5.33%. For `O=C(c1ccc(-c2ccccc2)cc1)C1CCCN(Cc2ccncc2)C1` (stereo not shown), the “hERG current change (%, negative = inhibition) at 10uM” value was -62.6%. With `O=C(/C=C/c1ccc([N+](=O)[O-])cc1)N1CCN(S(=O)(=O)c2ccccc2)CC1` the “hERG current change (%, negative = inhibition) at 10uM” value was -34.1%. For `CCCCCCCCC(=O)O`, the “hERG current change (%, negative = inhibition) at 10uM” value was 16%. With `Cc1ccc(OCCn2c(C)nc3ccccc32)cc1` the “hERG current change (%, negative = inhibition) at 10uM” value was 3.94%. For `CCOc1cc(/C=N\NC(=O)OC(C)(C)C)ccc1OC(=O)c1ccco1`, the “hERG current change (%, negative = inhibition) at 10uM” value was 14.8%. `O=C(NC1CCCC1)C(c1ccco1)N(Cc1ccccc1)C(=O)c1csnn1` (stereo not shown) was tested, and the “hERG current change (%, negative = inhibition) at 10uM” value was -19.6%. `O=C(Cc1ccccc1)NNS(=O)(=O)c1ccc([N+](=O)[O-])cc1` was tested, and the “hERG current change (%, negative = inhibition) at 10uM” value was 14.2%. In the case of `Cc1ccc(Cl)cc1NS(=O)(=O)c1c(C)[nH]c(=O)[nH]c1=O`, the “hERG current change (%, negative = inhibition) at 10uM” value is reported as -2.22%. In the case of `COC(=O)c1cccc(NC(=O)c2cccc(N3C(=O)CCC3=O)c2)c1`, the “hERG current change (%, negative = inhibition) at 10uM” value is reported as -4.33%. For `Cc1onc(-c2ccccc2)c1CNS(=O)(=O)c1ccccc1`, the “hERG current change (%, negative = inhibition) at 10uM” value was -3.92%. `COc1cc(C(=O)NC(=S)Nc2ccc(Cl)c(C(=O)O)c2)cc(OC)c1OC` was tested, and the “hERG current change (%, negative = inhibition) at 10uM” value was 5.11%. With `COc1cccc(CNC23CC4CC(CC(C4)C2)C3)c1OCc1ccccc1.Cl` the “hERG current change (%, negative = inhibition) at 10uM” value was -50%. In the case of `CC(C)Cn1c(SCC(=O)Nc2ncccn2)nc2ccccc21`, the “hERG current change (%, negative = inhibition) at 10uM” value is reported as -2.51%. For `Cc1ccc(S(=O)(=O)N2CCOC2CNC(=O)C(=O)NCC(C)C)cc1` (stereo not shown), the “hERG current change (%, negative = inhibition) at 10uM” value was -14%. In the case of `CCCNNC(=O)C(O)(c1ccccc1)c1ccccc1`, the “hERG current change (%, negative = inhibition) at 10uM” value is reported as 19.7%. With `N#Cc1ccccc1S(=O)(=O)N1CCN(C(=O)[C@@H]2CCCN2C(=O)c2cccs2)CC1` the “hERG current change (%, negative = inhibition) at 10uM” value was -5.03%. With `Cc1cccc(NC(=O)Cn2cc([N+](=O)[O-])cn2)n1` the “hERG current change (%, negative = inhibition) at 10uM” value was 9.91%. In the case of `O=C(NCCN1C(=O)S/C(=C\c2ccc(Cl)c([N+](=O)[O-])c2)C1=O)C1=COCCO1`, the “hERG current change (%, negative = inhibition) at 10uM” value is reported as -10.2%. With `COC(=O)C1=CN(Cc2ccc(OC)cc2)C=C(C(=O)OC)C1c1cccs1` the “hERG current change (%, negative = inhibition) at 10uM” value was 2.23%. In the case of `Cc1c(C(=O)N2CCN(c3ccccc3F)CC2)sc2nc(-c3ccccc3)cn12`, the “hERG current change (%, negative = inhibition) at 10uM” value is reported as -14.1%. In the case of `COc1ccc(/C=C/C(=O)NC(=S)NNC(=O)Cc2cccs2)cc1OC`, the “hERG current change (%, negative = inhibition) at 10uM” value is reported as 17.9%. In the case of `Cc1cc(OCC(=O)NCCc2c[nH]c3ccccc23)c2c(C)c(C)c(=O)oc2c1`, the “hERG current change (%, negative = inhibition) at 10uM” value is reported as 3.37%. `COC(=O)c1cnn2c(C(F)(F)F)cc(-c3ccccc3)nc12` was tested, and the “hERG current change (%, negative = inhibition) at 10uM” value was -3.12%. `O=C(C1CC(=O)N(c2ccccc2)C1)N1CCN(c2ccc(F)cc2)CC1` (stereo not shown) was tested, and the “hERG current change (%, negative = inhibition) at 10uM” value was -56.7%. `COc1cccc(C(=O)NCCS(=O)(=O)N2CCc3ccccc3C2)c1` was tested, and the “hERG current change (%, negative = inhibition) at 10uM” value was -16.2%. For `C=CCSc1nc(N)c2c3c(sc2n1)CN(C)CC3`, the “hERG current change (%, negative = inhibition) at 10uM” value was -28.6%. For `COc1cccc2c(=O)c3ccccc3oc12`, the “hERG current change (%, negative = inhibition) at 10uM” value was 6.18%. For `CN1C(=O)C(C)(C)c2cc(S(=O)(=O)NCc3ccc(C(=O)NCc4ccco4)cc3)ccc21`, the “hERG current change (%, negative = inhibition) at 10uM” value was -4.43%. In the case of `COc1cccc(CN2CCNCC2)c1OC`, the “hERG current change (%, negative = inhibition) at 10uM” value is reported as 9.21%. For `O=C(CN1CCN(Cc2ccccc2)CC1)Nc1ccc(N2CCOCC2)cc1`, the “hERG current change (%, negative = inhibition) at 10uM” value was -3.67%.
